B1: TPR 5TU (parent)
chain: GGAUCUUCUCGAUCUAACAAAAAAGACAAAUCUGCCACAAAGCUUGAGAGCAUCUUCGGAUGCAGAGGCGGCAGCCUUCGGUGGCGCGAUAGCGCCAACGUUCUCAACUAUGACACGCAAAACGCGUGCUCCGUUGAAUGGAGUUUAUCAUG

This sample is rich in variants without activity.

Variants of B1 are the subject of this data set. Nature of the data set: polymerase ribozyme fitness, log enrichment relative to wild type (log ratio); higher = more active; in vitro selection for triplet polymerase activity. In a few lines:
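Mutant libraries of each subunit of a heterodimeric triplet polymerase ribozyme were built by PCR and transcribed. Each library went through one round of in vitro selection in triplicate: annealing with biotinylated primer, partner subunit and triplets, frozen incubation at −7 °C, gel excision of extended constructs, streptavidin-bead capture and RT-PCR. Input and output libraries were Illumina-sequenced; only genotypes with ≥10 input reads and ≥1 read per output were kept. Fitness is log2(genotype enrichment/wild-type enrichment), using inverse-variance-weighted replicate averages.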
Turning to C10U G11U G50C C93A C105G U151G, the “polymerase ribozyme fitness (log ratio)” value was not above -4.2.
With C10G C96G A107G G152U, the “polymerase ribozyme fitness (log ratio)” value is not above -4.2.
Turning to C10G U31C A98G U151A, the “polymerase ribozyme fitness (log ratio)” value was not above -4.2.
On to G11C C14G A21U U55A G68C U127G G133U A137C, for which the “polymerase ribozyme fitness (log ratio)” value is not above -4.2.
Turning to G11C A41U A49C G83C A150C, the “polymerase ribozyme fitness (log ratio)” value is not above -4.2.
The same measure for C10U G48A C54U G83A C105U A122C: not above -4.2; for G11U A12G A30C C35A G80U C93A: not above -4.2; for G11A A30G C32A G86A: not above -4.2.
As for G11C C85U A119G, the “polymerase ribozyme fitness (log ratio)” value is -2.02.
G11C C54U G59U A60C U77G C85G U134A G141A: the “polymerase ribozyme fitness (log ratio)” value was not above -4.2.
The same measure for G11U A20U G50A A60C G67C G92C G143C U151A: not above -4.2; for G11C C57A A66U C87U C105G U148G: not above -4.2; for C10U A23U G80C C87G A107G G124C: not above -4.2.
Regarding G11C A40C C51G A52C C93U C103G, the “polymerase ribozyme fitness (log ratio)” value is not above -4.2.
Turning to C10G U77C C118G C125A U146G, the “polymerase ribozyme fitness (log ratio)” value is not above -4.2.
For G11C A41C C95A U146G, the “polymerase ribozyme fitness (log ratio)” value is -3.34.
For G11A A30C A98G, the “polymerase ribozyme fitness (log ratio)” value is not above -4.2.
With C10U G48C C85G, the “polymerase ribozyme fitness (log ratio)” value was not above -4.2.
Regarding G11A A52G U56A G70C C103A C114G G143C U146G, the “polymerase ribozyme fitness (log ratio)” value was not above -4.2.
The same measure for G11U A21U A24C C93U C105U: not above -4.2; for C10G G11A C35G U44G A52U G88A C96U: not above -4.2.
As for G11C A19G A23U G42C U44A G48A G88A C93A, the “polymerase ribozyme fitness (log ratio)” value was not above -4.2.
Turning to G11A C43A A49U A52G G81A U90A C95A A120U U134G, the “polymerase ribozyme fitness (log ratio)” value was not above -4.2.
For G11C A20U U56A U61A U77G A89U, the “polymerase ribozyme fitness (log ratio)” value was not above -4.2.
Take C10G U55A U77A G92C C95A G143U U144G: the “polymerase ribozyme fitness (log ratio)” value was not above -4.2.
Turning to C10G U31A A39U U55A C93U G141U, the “polymerase ribozyme fitness (log ratio)” value is not above -4.2.
Turning to G11C C27U U61A C72G U77G C85U A120U U148A, the “polymerase ribozyme fitness (log ratio)” value was not above -4.2.
On to G11C A16U A19U C79G C95G C96U A120U, for which the “polymerase ribozyme fitness (log ratio)” value is not above -4.2.
The same measure for C10U A89C G141C U148A: not above -4.2; for C10U C32G C35G C93A: not above -4.2; for G11C A17G C32A C72U A113U G117U A122U U148G: not above -4.2.
C10G C95U: the “polymerase ribozyme fitness (log ratio)” value was -3.16.
With C10U A22U A28U U55G G68C U101C, the “polymerase ribozyme fitness (log ratio)” value was not above -4.2.
The same measure for C10G U56G C85U A106G U109C G143A: not above -4.2; for G11C A16U C32G C36U G65U G71C G86U U90A C125A G143U: not above -4.2.
Regarding G11C U15G G59A G84U C105U U109G, the “polymerase ribozyme fitness (log ratio)” value is not above -4.2.
For the variant G11A C51U A66U C79A A98U, the “polymerase ribozyme fitness (log ratio)” value was not above -4.2.
For G11U A23C U55C C57A U82A G86A G117U, the “polymerase ribozyme fitness (log ratio)” value was not above -4.2.
Regarding C10G U144C, the “polymerase ribozyme fitness (log ratio)” value was -3.87.
The same measure for C10G U55G U56A A73G G94A: not above -4.2; for C10U C32U G84A: not above -4.2.
In the case of C10G U61C G86C C105G A119C, the “polymerase ribozyme fitness (log ratio)” value was not above -4.2.
In the case of C10U C38U A73G A89G A97G C116G A122U C129A, the “polymerase ribozyme fitness (log ratio)” value was not above -4.2.
Consider G11C A26U U146C, for which the “polymerase ribozyme fitness (log ratio)” value is not above -4.2.
Regarding C10U U53A C85A A115G G124C G141C U148G, the “polymerase ribozyme fitness (log ratio)” value was not above -4.2.
The result for G11A A52G C93A A120U reads not above -4.2.
For C10U A17C U31A A64G A122U U145G, the “polymerase ribozyme fitness (log ratio)” value was not above -4.2.
The same measure for C10U C54U U55G: not above -4.2; for C10U A39G C54G C63A G70C C93U G141A: not above -4.2.
In the case of C10U A19U A60C G86A A91C A97U U130G G136C U146C, the “polymerase ribozyme fitness (log ratio)” value is not above -4.2.
G11A U56A C99U G143C: the “polymerase ribozyme fitness (log ratio)” value is -3.7.
On to C10U A17G G42A C105U U109G G133A U134C, for which the “polymerase ribozyme fitness (log ratio)” value is not above -4.2.
As to C10U C27G C54U G92C C114G, the “polymerase ribozyme fitness (log ratio)” value was not above -4.2.
Take G11A G50U C57U A60G C85U A89U A107C: the “polymerase ribozyme fitness (log ratio)” value is not above -4.2.
On to G11A A29G G58A C69U G71A C95G U135G U145A U151A, for which the “polymerase ribozyme fitness (log ratio)” value was not above -4.2.
As for C10G U15C A17U A19G A29C A40U C93G C103G, the “polymerase ribozyme fitness (log ratio)” value is not above -4.2.
On to C10U A12U C14U A29U G48U G50A C54U A64G G84C U109G, for which the “polymerase ribozyme fitness (log ratio)” value was not above -4.2.
For the variant G11C G68U C85A G92C, the “polymerase ribozyme fitness (log ratio)” value was not above -4.2.
C10U A12G C36A C57G C93G: the “polymerase ribozyme fitness (log ratio)” value is not above -4.2.
As to G11A C95A C96U A97G, the “polymerase ribozyme fitness (log ratio)” value was not above -4.2.
Turning to C10G C76A C93U A138C, the “polymerase ribozyme fitness (log ratio)” value was not above -4.2.
As for G11A A41C G83U A121G A137C A150C, the “polymerase ribozyme fitness (log ratio)” value was not above -4.2.
The result for C10U U45G A60C C85U reads not above -4.2.
For C10G U146G, the “polymerase ribozyme fitness (log ratio)” value was -4.19.
As for C10U U53A C87A U90A A97U C118G, the “polymerase ribozyme fitness (log ratio)” value was not above -4.2.
The same measure for G11C A26U A40G A49G: not above -4.2; for C10U C27U G58C G94A G117U: not above -4.2.
In the case of G11U A12G U15A G58C G94U U151G, the “polymerase ribozyme fitness (log ratio)” value is not above -4.2.
With C10U A12U A20C G48C G83A A89G C95A G133U, the “polymerase ribozyme fitness (log ratio)” value is not above -4.2.
As for G11A A89G G94A C105G G112C, the “polymerase ribozyme fitness (log ratio)” value is not above -4.2.
The result for G11U A20G A49G A52C C57A C79A C103G reads not above -4.2; that for C10G C87G, not above -4.2; that for C10U U61G C95G C125U, not above -4.2.
As for G11A A19G C32A G94A A137U, the “polymerase ribozyme fitness (log ratio)” value is not above -4.2.
As to G11C A66C G86U C93U C108U G128U, the “polymerase ribozyme fitness (log ratio)” value was not above -4.2.
The result for C10G U55G C75G C76G G84U C118A U139C reads not above -4.2; that for C10U A12U C43A G50A G59C C93G C116A, not above -4.2.
Turning to G11A U15G U33C G34A G70C U82A C103G C108U C132U, the “polymerase ribozyme fitness (log ratio)” value is not above -4.2.
The result for G11A C27A A138C G141A reads not above -4.2.
With C10U G42C G68A G83C C85G G92U A97G U104A, the “polymerase ribozyme fitness (log ratio)” value was not above -4.2.
C10U G50A U55G G80C G86U: the “polymerase ribozyme fitness (log ratio)” value is not above -4.2.
Turning to G11U A20C A107C, the “polymerase ribozyme fitness (log ratio)” value was not above -4.2.
Regarding C10G G42C G50A C69U G86C C99U U145G, the “polymerase ribozyme fitness (log ratio)” value is not above -4.2.

(Values after the RNAGym collection of RNA variant scans (doi:10.1073/pnas.2313332121).)
